# Hit rate of the full screen: of about 360,000 compounds, about 7,500 (2.1%) were called active. Inconclusive means that the source gave no clear call. Such entries were picked first, then a sample of the others. Calls follow the shape of the dose curve; as a rule, active = well fitted cell-killing curve with a large enough effect; inconclusive = small, poorly fitted or top-dose-only effect, or effect the other way, or another doubt; inactive = no such curve, though single readings can be large or run the other way. Potencies of inconclusive entries are left out as doubtful fits.
# Assay: qHTS for induction of synthetic lethality in tumor cells producing 2HG: qHTS for the HT-1080-IDH1KD cell line;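 as to activity, negative = toxicity: 0% = DMSO wells and -100% = cell-free medium wells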
# Conditions: HT-1080 IDH1 knockdown viability, ATP luminescence, 48 h; activity, negative = toxicity: at 46.1 µM (top of the series) unless noted
# In short: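 Luminescent ATP read-out (CellTiter-Glo, 10 min at room temperature) after 48 h compound exposure at 37 °C gave viability of IDH1-knockdown HT-1080 cells. Activity was normalised to DMSO and cell-free wells, then fitted as concentration-response curves.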
# Potency is read from the fitted curve at half-maximal effect; tags tell the direction and shape of the fitted curve.
Compound,Potency,"activity, negative = toxicity"
O=C(C=Cc1cccc(Cl)c1)c1ccccc1,"inconclusive [cytotoxic, single point]",–
c1ccc(N2CCN(c3nc(NCc4ccco4)c4ccccc4n3)CC2)cc1,active: 18.4 µM,–
CCOC(=O)c1cnn(-c2ccc(Cl)cc2)c1C1CCN(C(=O)OC(C)(C)C)CC1,"inconclusive [cytotoxic, single point]",–
O=c1oc2ccccc2cc1-c1csc(Nc2ccc(O)cc2)n1,"inconclusive [cytotoxic, single point]",–
O=C(N/N=C/c1cc(Br)ccc1O)C(=O)Nc1ccccc1OC(F)(F)C(F)F,active: 0.891 µM,–
CCOC(=O)Cn1nc(-c2ccc(Cl)cc2)ccc1=O,–,inactive: -19.7%
Clc1ccccc1NN(Cc1ccncc1)c1ccccc1Cl,"inconclusive [cytotoxic, single point]",–
Cc1occc(=O)c1OCc1ccc(Cl)cc1Cl,–,inactive: -2.56%
CCCCOCCCNC(=O)C[C@@H]1C[C@@]2(C(=O)OC)CC(C)(C)CC=C2N(Cc2ccc3c(c2)OCO3)C1=O,"inconclusive [cytotoxic, single point]",–
COc1ccc(Cn2c(SCc3cc(C)ccc3C)nc3cc(OC)c(OC)cc3c2=N)cc1,"inconclusive [cytotoxic, single point]",–
O=C(Nc1ccc(-c2nc3ccccc3o2)c(O)c1)c1cc(-n2cnnc2)ccc1Cl,"inconclusive [cytotoxic, partial curve, poor fit]",–
S=C(NCC1CCCO1)N1CCN(c2nc(-c3ccc(Cl)cc3)cs2)CC1 (configuration not stated),"inconclusive [cytotoxic, partial curve]",–
CCN(CC)c1ccc(C(=O)N/N=C(\C)c2ccc(O)cc2)cc1,"inconclusive [cytotoxic, full curve]",–
Cn1nc(C(C)(C)C)cc1C(=O)NCc1ccc(N2CCCC2=O)cc1,"inconclusive [cytotoxic, single point]",–
COc1ccccc1NC(=O)COC(=O)c1cc([N+](=O)[O-])ccc1N1CCCC1,–,inactive: -0.165%
O=C(NC(c1ccccc1)c1ccc2ccccc2n1)C1CCN(Cc2cccc(C(F)(F)F)c2)CC1 (configuration not stated),active: 14.6 µM,–
CCOC(=O)c1nn2c(C(F)(F)F)cc(-c3ccc(OC)cc3)nc2c1Br,–,inactive: 4.56%
CCOC(=O)c1[nH]c(C(=O)O)c(OC(=O)CC)c1C,"inconclusive [rising, single point]",–
O=C(Nc1ccn(Cc2c(F)c(F)c(F)c(F)c2F)n1)c1ccc(COc2ccccc2Cl)cc1,"inconclusive [cytotoxic, single point]",–
COc1ccc(NC(=O)CN(C)C(=O)CN2C(=O)NC3(CCCCC3)C2=O)cc1,–,inconclusive: -31.5% [cytotoxic]
CC12CCC3c4ccc(O)cc4CCC3C1CC(O)C2O (configuration not stated),–,inactive: -12.2%

Compound,Potency,"activity, negative = toxicity"
Cc1cc(C)c2nc(N(CCCN(C)C)C(=O)c3ccc4c(c3)OCCO4)sc2c1,"inconclusive [cytotoxic, single point]",–
O=C1N[C@@H](Cc2c[nH]c3ccccc23)COC(=O)[C@H](Cc2ccc(F)cc2)C/C=C\C[C@@H]1CC(=O)N(CCO)Cc1ccccc1,"inconclusive [cytotoxic, single point]",–
COc1ccc(S(=O)(=O)N2CN(Cc3ccco3)c3nc4ccccc4nc32)cc1,"inconclusive [cytotoxic, single point]",–
Oc1ccc(/C=N/n2c3ccccc3c3ccccc32)cc1,active: 23.1 µM,–
O=C1C=C(Nc2ccc(O)cc2)CC(c2ccco2)C1 (configuration not stated),"inconclusive [cytotoxic, single point]",–
Cn1cc(Cl)c(C(=O)Nc2nc3ccccc3s2)n1,"inconclusive [cytotoxic, single point]",–
COc1ccc(C(=O)Nc2ccc(N3CCN(C(=O)c4ccccc4)CC3)cc2)cc1[N+](=O)[O-],–,inactive: -15.8%
Cc1ccccc1NS(=O)(=O)c1cc(C(=O)NCCSC2CCCCC2)ccc1C,"inconclusive [cytotoxic, single point]",–
CCc1ccc(NC(=S)NC2CC3CCCC(C2)N3Cc2cccs2)cc1 (configuration not stated),"inconclusive [cytotoxic, single point]",–
Cc1ccccc1NS(=O)(=O)c1ccc(C(=O)NNC(=O)c2ccccc2O)cc1,"inconclusive [cytotoxic, single point]",–
Cc1ccc(OCc2cc(C(=O)N(C)C3CCCc4ccccc43)no2)cc1C (configuration not stated),"inconclusive [cytotoxic, single point]",–
COc1ccc(-n2c(C)cc(C(=O)COC(=O)Cc3n[nH]c(=O)c4ccccc34)c2C)cc1,"inconclusive [cytotoxic, partial curve]",–
C[C@@H](NCCCn1cnc2c(OCc3ccccc3)ncnc21)c1cccc2ccccc12,–,inconclusive: -33%
CC(O)CNCCCOc1cccc(Oc2ccccc2)c1 (configuration not stated),"inconclusive [cytotoxic, partial curve]",–
CC(=O)N(C(C)=O)c1ncnc2c1c(-c1ccc(Cl)cc1)nn2C(C)(C)C,active: 14.6 µM,–
O=C(NC(NC(=O)c1c(F)cccc1F)c1ccc([N+](=O)[O-])cc1)c1c(F)cccc1F,"inconclusive [cytotoxic, single point]",–
COc1cccc(OCc2cc(/C=N/n3cncn3)ccc2OC)c1,"inconclusive [cytotoxic, partial curve]",–
CCC1(C)Cc2c(sc3nnn(CC(=O)Nc4ccc(Cl)cc4)c(=O)c23)CO1 (configuration not stated),"inconclusive [cytotoxic, single point]",–
COc1cccc(C(C)(O)c2nc(-c3cccc(NC(C)=O)c3)cs2)c1 (configuration not stated),–,inactive: -3.7%
Cc1ccccc1N1CCN(S(=O)(=O)C[C@]23CCC(CC2NC(=O)[C@@H](N)CCS(C)(=O)=O)C3(C)C)CC1 (some centres not stated),"inconclusive [cytotoxic, single point]",–
O=C(NCCCN1CCCC1)C1CCN(C(=O)c2cc3sccc3n2Cc2ccc(F)cc2)CC1,"inconclusive [cytotoxic, single point]",–
